Reference: paper PMC4336329 (PLoS ONE, 2015)
In all, about 310,000 compounds went through this assay and about 2,200 (0.71%) showed an effect of 50% or more. Effects have a minus sign here. The list shows a part of the results.

Target: human ether-à-go-go-related gene (hERG) potassium channel (human, UniProt Q12809)
Test: primary screen, population patch clamp on CHO cells stably expressing hERG

Chain of human ether-à-go-go-related gene (hERG) potassium channel (Q12809 whole entry, looked up): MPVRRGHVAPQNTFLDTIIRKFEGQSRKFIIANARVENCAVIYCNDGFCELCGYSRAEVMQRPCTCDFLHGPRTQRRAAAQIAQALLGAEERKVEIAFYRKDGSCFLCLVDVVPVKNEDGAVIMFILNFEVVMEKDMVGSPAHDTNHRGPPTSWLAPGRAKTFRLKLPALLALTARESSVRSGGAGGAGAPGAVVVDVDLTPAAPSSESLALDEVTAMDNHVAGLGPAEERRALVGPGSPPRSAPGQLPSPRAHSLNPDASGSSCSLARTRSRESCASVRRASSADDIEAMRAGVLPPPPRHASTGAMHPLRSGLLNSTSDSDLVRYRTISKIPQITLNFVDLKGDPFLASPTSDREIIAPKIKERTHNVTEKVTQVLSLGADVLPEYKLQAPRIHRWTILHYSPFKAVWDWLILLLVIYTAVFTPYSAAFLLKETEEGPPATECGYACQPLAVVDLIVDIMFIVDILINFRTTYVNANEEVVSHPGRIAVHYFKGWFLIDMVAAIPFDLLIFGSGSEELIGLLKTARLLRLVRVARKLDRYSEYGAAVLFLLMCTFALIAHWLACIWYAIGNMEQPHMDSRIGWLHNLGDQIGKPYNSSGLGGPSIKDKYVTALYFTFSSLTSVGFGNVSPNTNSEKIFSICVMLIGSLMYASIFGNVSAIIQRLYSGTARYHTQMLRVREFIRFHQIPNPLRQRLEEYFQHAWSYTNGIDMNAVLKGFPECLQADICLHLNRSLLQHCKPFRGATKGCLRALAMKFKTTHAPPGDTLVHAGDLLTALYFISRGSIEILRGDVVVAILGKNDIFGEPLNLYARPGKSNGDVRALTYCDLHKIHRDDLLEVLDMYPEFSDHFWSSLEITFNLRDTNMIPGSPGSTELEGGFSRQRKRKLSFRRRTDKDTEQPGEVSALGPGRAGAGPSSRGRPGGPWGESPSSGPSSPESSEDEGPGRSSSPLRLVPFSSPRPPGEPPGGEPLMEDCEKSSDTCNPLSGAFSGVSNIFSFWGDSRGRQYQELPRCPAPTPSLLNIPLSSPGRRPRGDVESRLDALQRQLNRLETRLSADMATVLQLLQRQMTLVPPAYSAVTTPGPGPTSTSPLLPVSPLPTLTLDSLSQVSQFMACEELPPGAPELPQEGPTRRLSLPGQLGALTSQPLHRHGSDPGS

In order of rising “hERG current change (%, negative = inhibition) at 1uM” value:
1. O=C(CN1CCN(CC(=O)Nc2ccccc2Cl)CC1)Nc1ccc2c(c1)OCCO2  -37.3%
2. Cc1ccc(C(=O)NCC(=O)OCc2nnc(-c3ccc([N+](=O)[O-])cc3)o2)s1  -21.3%
3. CCOc1cc(N2CCOCC2)c(OCC)cc1NC(=O)COC(=O)CCn1c(C)csc1=O  -17.7%
4. CCCCN(CC)CCNC(=O)c1cc2c(C)nc3ccccc3c2o1  -15%
5. COc1ccc(C(=O)Nc2ccc(Cl)cn2)cc1S(=O)(=O)N1CCCC1  -14.4%
6. COc1ccc(N2CCN(c3oc(COc4ccccc4)nc3C#N)CC2)cc1  -9.7%
7. CCN1CCN(C(CNS(=O)(=O)c2ccc(C)cc2)c2cccnc2)CC1 (centres unmarked)  -9.35%
8. CCCNC(=O)c1ccc(N2CCC3(CC2)CC(c2ccccc2)=NO3)c(NC(=O)Cc2ccc(F)cc2)c1  -7.77%
9. C=C(C)CSC1=C(C#N)C(c2ccccc2)CC(=O)N1 (centres unmarked)  -3.8%
10. Cc1ccc(OCC(=O)N/N=C/C=C/c2ccco2)cc1  -2.69%
11. COc1ccccc1NS(=O)(=O)c1ccc(C)c(NC(=O)NC2CCCCC2)c1  -1.93%
12. CCCCN1Cc2cc(C(=O)c3cc(F)ccc3O)cnc2NC1=O  -1.1%
13. O=C(Nc1ccc(Cl)cc1)c1cc(S(=O)(=O)Nc2ccccn2)ccc1Cl  -1.06%
14. Cc1ccc(S(=O)(=O)N2Cc3ccccc3CC2C(=O)NC(C)(C)C)cc1 (centres unmarked)  -0.102%
15. Cc1cc(C)c(S(=O)(=O)c2ccccc2C)c(Oc2ccccc2)n1  0.0263%
16. Cn1nccc1C(=O)Nc1ccc(OC(=O)c2ccnn2C)cc1  1.26%
17. COc1ccc(S(=O)(=O)Nc2ccc(C)cn2)cc1  1.38%
18. O=C(NNC(=S)NC(=O)c1ccccc1)c1ccc([N+](=O)[O-])cc1  1.47%
19. Cc1cccc(NC(=O)CC2CCC2)c1  1.8%
20. O=S(=O)(NCC(c1ccco1)N1CCN(c2ccccc2F)CC1)c1ccc(F)cc1 (centres unmarked)  1.87%
21. Cc1ccc(C2c3[nH]c4ccccc4c3C[C@H]3C(=O)N(c4ccccc4C(=O)NCCCN4CCOCC4)C(=O)N23)cc1 (some centres unmarked)  2.32%
22. CCCCn1c(SCC(=O)N2c3ccccc3Sc3ccccc32)nc2c1c(=O)n(C)c(=O)n2C  3.06%
23. Clc1cccc(N/N=C(\Cc2nc3ccccc3[nH]2)c2ccccc2)c1  3.08%
24. Cc1ccc(C(=O)N2CCN(S(=O)(=O)c3ccc(Br)cc3)CC2)o1  3.15%
25. CCC1CCCCN1c1nc2c(C=O)c(C)nn2c2ccccc12 (centres unmarked)  3.82%
26. O=S(=O)(NCCN1CCCC1)c1ccc(Br)cc1  3.89%
27. O=C1CCC([N+](=O)[O-])C(c2ccc(Cl)cc2Cl)N1 (centres unmarked)  4.22%
28. N#C/C(=N\Nc1cc(Cl)cc(Cl)c1)c1nnc2n1CCCCC2  4.31%
29. CCCCC1(C)NC(=O)N(CC(=O)Nc2cc(S(=O)(=O)N3CCOCC3)ccc2Cl)C1=O (centres unmarked)  4.4%
30. O=C(CSc1nnc(CNC(=O)c2ccccc2)o1)NCc1ccc2c(c1)OCO2  4.4%
31. CC(NC(=S)Nc1ccccc1)C(c1cccs1)N1CCOCC1 (centres unmarked)  5.09%
32. O=C(Nc1cccc(S(=O)(=O)N2CCCCCC2)c1)c1cc(=O)c2ccccc2o1  5.24%
33. Cc1ccc(CCNC(=O)C2CCN(S(=O)(=O)c3ccc4c(c3)CCC(=O)N4)CC2)cc1  5.74%
34. COC1CCN(C(=O)c2cc(COc3ccc(-n4cncn4)cc3)on2)CC1  5.81%
35. COc1ccc(Cn2c(C)nc3ccc([N+](=O)[O-])cc3c2=O)cc1  5.96%
36. COc1ccc(S(=O)(=O)NCCc2nnc3ccc(SCC(=O)Nc4cc(C)on4)nn23)cc1  6.09%
37. COc1ccc(CN2C(=O)c3ccccc3C2C(=O)NC2CCC(C)CC2)c(OC)c1 (centres unmarked)  6.09%
38. O=C(NNC(=O)c1csc(N2CCOCC2)n1)c1ccc(=O)[nH]c1  6.62%
39. COc1ccccc1-c1nc(-c2ccccc2)[nH]c(=O)c1C#N  6.71%
40. Cc1cccc2cc(CN(Cc3nnnn3C3CCCCC3)C3CCCC3)c3nnnn3c12  6.72%
41. Cc1ccccc1OCCn1c(=O)sc2ccccc21  6.89%
42. CC1CN(c2oc(-c3ccccc3Cl)nc2C#N)CC(C)O1 (centres unmarked)  7.03%
43. CCN1CCN(CCCNC(=O)CS(=O)(=O)Cc2nc(-c3ccccc3C)oc2C)CC1  7.48%
44. Cl.NCCCC(=O)N1c2ccccc2Sc2ccc(Cl)cc21  7.61%
45. Clc1ccc(/C=N/Nc2nnc(Cl)c3ccccc23)cc1  7.81%
46. Brc1cc(Br)c2nc(-c3cccs3)ccc2c1  8.07%
47. Cc1cc(C(=O)CCC(=O)Nc2ncccc2C)c(C)s1  8.39%
48. CC(C)(C)N1CC2([N+](=O)[O-])CN(C(C)(C)C)CC([N+](=O)[O-])(C1)C2  8.81%
49. Cc1cccc(C(=O)N2CCN(c3ccc(N4CCOCC4)nn3)CC2)c1  9.05%
50. CCSc1nnc(NC(=O)c2cccc(S(=O)(=O)N(C)c3ccc(C)cc3)c2)s1  9.08%
51. COc1ccccc1N1CCN(Cc2ccc(C(=O)O)cc2)CC1  9.12%
52. CCOC(=O)[C@H]1[C@H]2COc3ccc(C)cc3[C@@H]2N2C(=O)CN(Cc3ccccc3)C(=O)[C@@]12C  9.36%
53. Cn1cc(CN2CCCC(C(=O)c3nccn3C)C2)c(-c2cccc(Cl)c2)n1 (centres unmarked)  9.44%
54. COc1ccc(C(C)=O)cc1CSc1nnc(Nc2ccc(C)cc2)s1  9.59%
55. CC(C(=O)N1CCCCC1)N(C)CC(=O)Nc1cccc(F)c1.O=C(O)C(=O)O (centres unmarked)  9.77%
56. O=C(O)CCCCCN=Cc1c(O)c2ccccc2oc1=O  9.8%
57. COc1ccc(C2N(c3cc(Cl)ccc3OC)C(=O)C3CCCN32)cc1 (centres unmarked)  9.98%
58. O=c1c2c(-c3cccs3)csc2[nH]c(=S)n1-c1ccccc1  10.5%
59. Cc1ccc(C)c(OCc2n[nH]c(=S)o2)c1  10.6%
60. Nc1nc(-c2cc(Cl)cc(Cl)c2OC(F)F)cs1  10.7%
61. COc1cc(C)c(S(=O)(=O)n2ccc(C)n2)cc1C  10.8%
62. CC1=NN(c2ccc(Cl)cc2)C(=O)C1C(c1ccccc1O)c1c(C)[nH]n(-c2ccc(Cl)cc2)c1=O (centres unmarked)  11%
63. Cn1c(=O)c2c(nc(N3CCCCC3)n2CCSc2nc3ccccc3s2)n(C)c1=O  11.1%
64. CCN(CC(=O)Nc1c(F)cccc1F)C(=O)c1ccc(Cl)c(S(=O)(=O)N2CCCC2)c1  11.2%
65. Cc1cc(NC(=O)c2ccccc2)n(-c2ccccc2)n1  12.1%
66. COC(=O)C1=C(c2ccc(S(C)(=O)=O)cc2)C[C@@H]2CC[C@H]1N2C(=O)NCCS(C)=O (some centres unmarked)  12.2%
67. CCN(CC)C(=O)c1cc(Cl)ccn1  12.2%
68. Cc1ccc(S(=O)(=O)NC(C)(C)CN2CCNCC2)cc1  12.5%
69. O=S(=O)(Nc1ccc(N2CCCCC2)cc1)c1ccc(F)c(F)c1  12.5%
70. S=c1[nH]nc(-c2ccc(Br)cc2)n1Cc1ccccc1  12.8%
71. CSc1nnc(-c2ccc(F)cc2)o1  13%
72. CC(C)CN1CN(Cc2ccccc2)CNC1=S  13.1%
73. O=C(CC12CC3CC(CC(C3)C1)C2)NC(=S)N1CCCCC1  13.1%
74. Cc1cc(C)c(C)c(S(=O)(=O)NC(C)C(=O)O)c1C (centres unmarked)  13.2%
75. Cc1nn(Cc2ccccc2)c(Cl)c1/C=N/NC(=O)CNc1cccc(C(F)(F)F)c1  13.3%
76. CCCCN(C)C(=O)C1CCC(CNS(=O)(=O)c2ccc3c(c2)CC(C)N3C(C)=O)CC1 (centres unmarked)  13.4%
77. CC1CCCN(C(=O)c2ccc(COc3ccccc3Br)cc2)C1 (centres unmarked)  13.4%
78. C[C@H](CCC(=O)O)[C@H]1CC[C@H]2[C@@H]3C(=O)C[C@@H]4CC(=O)CC[C@]4(C)[C@H]3CC(=O)[C@]12C  14.6%
79. CCS(=O)(=O)N1CCC(C(=O)NCCCOC)CC1  14.7%
80. COc1cccc(NC(=O)Cn2nnc(C(=O)Nc3cc(Cl)ccc3OC)c2N)c1  15.5%
81. COc1cc(-n2c(C)nc3cccnc32)c(Cl)cc1C(=O)O  16.1%
82. Cc1ccc2nc(Cl)c(/C=C/C(=O)c3ccco3)cc2c1  16.4%
83. COc1ccc(CNCCNC(=O)c2cccs2)c(OC)c1OC  17.2%
84. CCCCn1c(SCC(=O)N(CC)C2CCS(=O)(=O)C2)nc2cc(S(N)(=O)=O)ccc21 (centres unmarked)  18.1%
85. CCS(=O)(=O)c1ccc2c(c1)N(S(=O)(=O)c1ccc(OC)cc1)CC(C(=O)O)O2 (centres unmarked)  18.5%
86. C=CCOc1ccc(/C=C2/C(=O)ON=C2C)cc1OCC  19.5%
